Reference: PubChem BioAssay AID1508642 (National Center for Advancing Translational Sciences (NCATS), 2021)
The campaign covered roughly 43,000 compounds. About 200 (0.47%) were called active. About 12% were inconclusive and are not listed. Calls follow the shape of the dose curve; as a rule, active = well fitted cell-killing curve with a large enough effect; inconclusive = small, poorly fitted or top-dose-only effect, or effect the other way; inactive = flat fitted curve, though single readings scatter. The list shows a part of the results.

Test: Cell viability qHTS assay in S16 Pmp22-F2sN cells; also: nearly all actives have a fitted effect of over 65% in size
Conditions: S16 Pmp22-F2sN Schwann cells viability, CellTiter-Glo, 24 h; series mostly up to 57.5 µM; activity change, negative = cytotoxicity: at the top concentration
Summary of the method: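 Used to flag compounds lowering reporter output through toxicity, this quantitative HTS measures ATP-based CellTiter-Glo luminescence in S16 Pmp22-F2sN Schwann cells after 24 h compound exposure at 37C.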
% is scaled to controls: 0 for no effect and ±100 for the full control effect; potency is read from the fitted curve at half-maximal effect.

| SMILES | activity change, negative = cytotoxicity | Potency |
| --- | --- | --- |
| Clc1ccccc1CNCCCSc1nnnn1-c1ccccc1 | inactive: 3.76% | – |
| CCOc1ccc(/C=C/c2nc(C#N)c(NCc3ccc(OC)cc3)o2)cc1 | inactive: 4.69% | – |
| Cc1noc(C)c1S(=O)(=O)N(CC(=O)Nc1ccc(C(F)(F)F)cc1)c1ccc(C(C)C)cc1 | inactive: -6.49% | – |
| CCOCCCNC(=O)Cn1ncc2c([nH]c3ccccc32)c1=O | inactive: 9.61% | – |
| CN(C)c1ccc(-c2nc3ccc(Cl)cn3c2Nc2ccc3c(c2)OCCO3)cc1 | inactive: 7.34% | – |
| CCCN(CCC)c1cc(C)nc2nc(-c3ccc(C(C)(C)C)cc3)nn12 | inactive: -0.248% | – |
| Cc1cc(C)cc(N2C(=O)CSC23C(=O)N(CC(N)=O)c2ccccc23)c1 (stereo unspecified) | inactive: 2.98% | – |
| Cn1nc(-c2ccccc2)c(-c2ccccc2)c(C(=O)Nc2ccccc2C(N)=O)c1=O | inactive: -8.14% | – |
| CC(=O)N1CCc2cc(Br)cc(S(=O)(=O)CCC(=O)N3CCN(c4cccc(C)c4C)CC3)c21 | inactive: -7.39% | – |
| Cc1ccc(C)c(N2CCN(C3(c4ccccc4)C(=O)c4ccccc4C3=O)CC2)c1 | inactive: -10.1% | – |
| CCOCCCNC(=O)Cn1ncc2c([nH]c3ccc(C)cc32)c1=O | inactive: 0.459% | – |
| COCCN(Cc1ccc(C)c(Br)c1)S(=O)(=O)c1ccc2[nH]c(=O)ccc2c1 | inactive: 6.37% | – |
| CCCN(c1ccccc1F)S(=O)(=O)c1cc(-c2cc(C)no2)ccc1C | inactive: -5.58% | – |
| CC(C)(C)C1CCc2c(sc(NC(=O)c3cc(-c4ccc(F)cc4)on3)c2C#N)C1 (stereo unspecified) | inactive: 8.92% | – |
| Cc1cc(C)cc(-n2ccn3cnnc3c2=O)c1 | inactive: -0.459% | – |
| Cc1ccc(OCC(=O)OCc2cc(=O)n3nc(C4CC4)sc3n2)cc1C | inactive: -12.2% | – |
| CCC(C(=O)NCCc1ccc(OC)c(OC)c1)n1nc(C)c2sc3ccccc3c2c1=O (stereo unspecified) | inactive: 8.88% | – |
| CCCCCCSc1nc(N)c2c3c(sc2n1)CCCC3C (stereo unspecified) | inactive: -0.85% | – |
| CSc1cccc(Nc2cc(C(=O)NC3CCCCC3)c3ccccc3n2)c1 | inactive: -20.2% | – |
| CCc1ccc2occ(CC(=O)Nc3c(C(=O)c4ccc(F)cc4)oc4ccccc34)c2c1 | inactive: 9.74% | – |
| COc1ccc(C)cc1NC(=O)Cn1c(=O)oc2cc(S(=O)(=O)N3CCCCCC3)ccc21 | inactive: -0.773% | – |
| CCOc1ccc(C(=O)N2CC(=O)Nc3ccc(F)cc3C2c2ccc(F)cc2)cc1 (stereo unspecified) | inactive: 8.66% | – |
| CCc1cccc(C)c1NC(=O)c1cc(CN2CCCC2)on1 | inactive: 1.08% | – |
| CC(C)NC(=O)C1CCCN(S(=O)(=O)c2ccc3c(ccn3C)c2)C1 (stereo unspecified) | inactive: 2.69% | – |

| SMILES | activity change, negative = cytotoxicity | Potency |
| --- | --- | --- |
| COCCn1c(C)cc(O)c(C(c2cccc(F)c2)N2CCN(c3ccccc3)CC2)c1=O (stereo unspecified) | inactive: 2.07% | – |
| COc1ccc(-c2oc3ncn4nc(COc5ccc(Cl)cc5)nc4c3c2-c2ccc(OC)cc2)cc1 | inactive: -0.931% | – |
| CCc1nnc2c(Nc3cc(OC)c(Cl)cc3OC)nc3ccccc3n12 | inactive: 2.37% | – |
| COc1ccc(OC(=O)c2cn(-c3cccc(OC)c3)c(=O)c3ccccc23)cc1 | inactive: 3.4% | – |
| Cc1ccc(OC(C)C(=O)N2CCN(CCc3ccccn3)CC2)cc1C (stereo unspecified) | inactive: 1.82% | – |
| O=S(=O)(NCC(c1ccco1)S(=O)(=O)c1cccs1)c1ccccc1 (stereo unspecified) | – | active: 31.6 µM |
| Cc1cc(Cl)ccc1NC(=O)C1CCCN(c2nnc(C)c3c(C)n(-c4ccccc4)nc23)C1 (stereo unspecified) | inactive: 12.5% | – |
| Cc1cc(C)c(NC(=O)C(C)n2nc(C)c3sc4ccccc4c3c2=O)c(C)c1 (stereo unspecified) | inactive: -1.87% | – |
| COc1cccc(N2CC(NC(=O)c3cccs3)CC2=O)c1 (stereo unspecified) | inactive: 0.449% | – |
| CC(CCc1ccccc1)NC(=O)CSc1n[nH]c(-c2ccccc2Cl)n1 (stereo unspecified) | inactive: -5.61% | – |
| CCc1ccc(CNC(=O)c2ccc(Cn3c(=O)c4cccn4c4cccnc43)cc2)cc1 | inactive: 5.51% | – |
| CCCc1nnc(NC(=O)CSc2nnc3c4ccccc4n(CC)c3n2)s1 | inactive: 4.6% | – |
| Cc1cccc(OCC(=O)Nc2ccc3nc(SCc4ccccc4)sc3c2)c1 | inactive: 27.9% | – |
| Cc1nc2ccccc2n1CCc1nc2c3ccccc3nc(SCc3ccccc3F)n2n1 | inactive: -2.42% | – |
| O=C(Nc1ncc(Cc2ccc(F)cc2)s1)c1ccc2c(c1)CC(c1ccccc1)OC2=O (stereo unspecified) | inactive: 3.57% | – |
| CCCCCn1c(CCCNC(=O)c2ccccc2)nc2ccccc21 | inactive: -19.1% | – |
| CCCC(=O)N1c2nc(-c3ccco3)nn2C2(CCCCC2)[C@@H]2CCCC[C@@H]21 | inactive: 0.214% | – |
| COc1cccc(NC(=O)Cn2c(=O)n(-c3ccc(C)cc3)c(=O)c3ccccc32)c1 | inactive: -8.51% | – |
| CCN1C(=O)C(Cc2nc3ccccc3c(=O)n2-c2cccc(C)c2)c2ccccc21 (stereo unspecified) | inactive: -0.79% | – |
| CC(C)Oc1ccc(C(=O)NCCc2csc(-c3cccc(F)c3)n2)cc1 | inactive: -4.91% | – |
| Cc1ccccc1NC(=O)c1c(C)oc2ccc(O)c(CN(C)Cc3ccccc3)c12 | inactive: -21.1% | – |
| Cc1ccc(-c2noc(-c3ccccc3OCC(=O)Nc3ccccc3[N+](=O)[O-])n2)cc1 | inactive: 0.492% | – |
| Cc1cccc(N(C)C(=O)Cn2cnc3nc4c(cc3c2=O)CCCC4)c1 | inactive: -0.119% | – |
| Cc1nn(C)c2c1c(C(F)(F)F)cc(=O)n2CC(=O)Nc1ccc(F)cc1F | inactive: -6.14% | – |

| SMILES | activity change, negative = cytotoxicity | Potency |
| --- | --- | --- |
| Cc1ccccc1NC(=O)CSc1nccn1C | inactive: 14.3% | – |
| Cc1nnc(N2CCC(C(=O)NC3CCC(C)CC3)CC2)c2nn(-c3ccc(Cl)cc3)c(C)c12 (stereo unspecified) | inactive: -1.83% | – |
| COC(=O)c1cc2sccc2n1Cc1c(C)cc(C)cc1C | inactive: 4.5% | – |
| COc1ccc(NC(=O)C2CCCN(S(=O)(=O)c3ccc4[nH]c(=O)ccc4c3)C2)cc1Cl (stereo unspecified) | inactive: 6.1% | – |
| NC(=O)c1c(NC(=O)CS(=O)(=O)c2ccc(Cl)cc2)sc2c1CCCC2 | inactive: -4.41% | – |
| O=C(c1cccc(Cl)c1)N(Cc1cccc(F)c1)C1CCS(=O)(=O)C1 (stereo unspecified) | inactive: 2.96% | – |
| CCCSc1nnc(NC(=O)c2cc(=O)c3ccccc3o2)s1 | inactive: 6.28% | – |
| COc1ccc(S(=O)(=O)N(CCc2ccccc2)CC(=O)Nc2cc(Cl)ccc2C)cc1 | inactive: -2.97% | – |
| CCOC(=O)N1CCc2c(sc3c2c(=O)n(CCc2ccccc2)c(=O)n3CC(=O)Nc2ccccc2C)C1 | inactive: -0.155% | – |
| Cc1ccc(-c2nn(CCC(=O)Nc3ccc(OC(F)(F)F)cc3)c(=O)c3ccccc23)cc1 | inactive: 6.69% | – |
| Cc1ccc(NC(=O)C2CCN(C(=O)c3sc4nc[nH]c(=O)c4c3C)CC2)cc1F | inactive: 7.91% | – |
| COc1ccccc1C(=O)Nc1ccccc1OCc1cc(=O)n2cc(C)sc2n1 | inactive: 11.2% | – |
| CCOc1cccc(C(=O)N(Cc2ccc(C(C)C)cc2)C2CCS(=O)(=O)C2)c1 (stereo unspecified) | inactive: -10.4% | – |
| COc1ccc(Cc2c(C)nn(-c3nc(C)c(C(=O)Nc4cccc(C(C)=O)c4)s3)c2C)cc1 | inactive: -3.05% | – |
| CCS(=O)(=O)c1nc(S(=O)(=O)c2ccc(Cl)cc2)c(NCc2ccc(Cl)cc2)s1 | inactive: 2.96% | – |
| CCOC(=O)c1[nH]c(C)c(CCC(=O)N2CCN(c3ccc(Cl)cc3)CC2)c1C | inactive: -30.3% | – |
| COc1ccc(-c2ccc(=O)n(CC(=O)Nc3ccc(Br)cc3F)n2)cc1 | inactive: 10.2% | – |
| Cn1c(=O)c2c(-c3ccccc3)n(-c3cccc(C#N)c3)cc2n(C)c1=O | inactive: 3.93% | – |
| O=C(O)c1ccc(Nc2ncnc3scc(-c4ccccc4)c23)cc1 | inactive: -0.215% | – |
| Cc1ccc2c(c1)N(C(=O)c1ccc(F)cc1)C(C)(C)CC2(C)c1ccccc1 (stereo unspecified) | inactive: -3.73% | – |
| COC(=O)c1cc(OC)c(OC)cc1NC(=O)c1ccc2c(c1)CCN2S(C)(=O)=O | inactive: -0.7% | – |
| CCc1ccccc1N1C(=O)N(Cc2cc(=O)n3ccccc3n2)c2ccccc2S1(=O)=O | inactive: 16.1% | – |
| O=C(NCc1ccccc1)c1c2c(nc3ccccc13)C(=O)N(C1CCCCC1)C2 | inactive: 7.1% | – |
| CCC(C(=O)NCc1ccccc1Cl)n1c(=O)c2cccn2c2ccccc21 (stereo unspecified) | inactive: -0.812% | – |

| SMILES | activity change, negative = cytotoxicity | Potency |
| --- | --- | --- |
| Cc1cc(OC(C)C(=O)N(Cc2ccco2)Cc2ccco2)cc(C)c1Cl (stereo unspecified) | inactive: -18.5% | – |
| CC(C)c1ccc(NC(=O)[C@H]2O[C@@H]3OC(C)(C)O[C@@H]3[C@H]3OC(C)(C)O[C@H]32)cc1 | inactive: 23.9% | – |
| Cc1nn(CC(=O)N2CCN(c3ccccc3F)CC2)c(=O)c2cccn12 | inactive: 6.47% | – |
| CCN(CC)c1ccc2nc3c(=O)n(C)c(=O)n(C)c3nc2c1 | inactive: 5.16% | – |
| CCOc1ccc(-c2nnc(SCC(=O)NC3CCCCC3)nc2-c2ccc(OCC)c(OC)c2)cc1OC | inactive: -7.12% | – |
| CCN1C(=O)c2ccccc2S(=O)(=O)c2ccc(C(=O)NCc3ccc(C)cc3)cc21 | inactive: 3.62% | – |
| COc1ccc(CNC(=O)CCn2c(=O)c3cccn3c3ccc(F)cc32)cc1OC | inactive: -3.68% | – |
| CCc1ccc2occ(CC(=O)Nc3nnc(SC)s3)c2c1 | inactive: -1.26% | – |
| CCn1nc(C)c(CCN(C)C(=O)Nc2cc(Cl)c(OC)cc2OC)c1C | inactive: 7.34% | – |
| O=C(CSc1oc(-c2ccc(F)cc2)nc1S(=O)(=O)c1ccccc1)c1ccc(Cl)cc1 | inactive: 2.49% | – |
| CC(C)c1nn2c(=O)cc(COC(=O)c3cccc(NC(=O)CCc4ccccc4)c3)nc2s1 | inactive: -11.9% | – |
| CCN(Cc1ccccc1)C(=O)Cn1c(=O)cc(C)c2c(C)nn(-c3cccc(F)c3)c21 | inactive: -15.2% | – |
| COc1ccc(NC(=O)CN2C(=O)C(c3ccccc3)=NC23CCC(C)CC3)cc1Cl (stereo unspecified) | inactive: -18.1% | – |
| CCOC(=O)C(Cc1ccccc1)NC(=O)Cn1nnc(-c2ccc(C)cc2)n1 (stereo unspecified) | inactive: 21.6% | – |
| CN(C)S(=O)(=O)N(CC(=O)NCCSCc1ccc(Cl)cc1Cl)c1ccccc1 | inactive: -6.04% | – |
| CSc1ccc(CCNC(=O)C2CCCN(S(=O)(=O)N(C)c3ccc(F)cc3)C2)cc1 (stereo unspecified) | inactive: -4.84% | – |
| COc1ccc(C(C)C)cc1S(=O)(=O)NCCc1c(C)[nH]c2c(Cl)cccc12 | inactive: -17.7% | – |
| C[C@H](NC(=O)OC(C)(C)C)c1nnc(SCc2ccc(Cl)cc2Cl)o1 | inactive: 25.2% | – |
| COc1ccc(-n2ccnc(NCCc3ccc(S(N)(=O)=O)cc3)c2=O)cc1Cl | inactive: -28.8% | – |
| Cc1cccn2c(=O)cc(COc3cccc(NC(=O)Nc4cccc(Cl)c4)c3)nc12 | inactive: 3.21% | – |
| O=C1Cc2cc(S(=O)(=O)Nc3cccc(C(F)(F)F)c3)cc3c2N1CCC3 | inactive: -15.6% | – |
| Cc1ccc(NC(=O)Cn2cc(S(=O)(=O)Cc3ccccc3)c3ccccc32)cc1C | inactive: -16.4% | – |
| COC(=O)c1cc2occc2n1Cc1nc(-c2ccc(Cl)cc2)oc1C | inactive: 7.72% | – |
| CCc1ccc(S(=O)(=O)c2cn(C)c3ccc(C)cc3c2=O)cc1 | inactive: 9.29% | – |
